Measurements as given in the supplement of paper PMC9513381.

How the values were obtained:
[1] = biological target: SARS-CoV-2 Wuhan-Hu-1 spike pseudovirus; experiment: pseudovirus neutralization IC50; higher = weaker neutralization
Experimental: (§1)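 Single-round luciferase reporter pseudovirus mixed with antibody dilutions and put on 293T-ACE2 cells for 48 h; signal relative to no-antibody wells, four-parameter fit.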

[2] = biological target: SARS-CoV-2 Wuhan-Hu-1 spike pseudovirus; experiment: pseudovirus neutralization IC90; higher = weaker neutralization
Experimental: as §1

[3] = biological target: SARS-CoV-2 Delta (B.1.617.2) spike RBD; experiment: ELISA binding EC50; higher = weaker binding; ELISA of recombinant human antibody on coated antigen, from 10 µg/ml in fourfold dilutions; four-parameter fit.
[4] = biological target: SARS-CoV-2 Omicron BA.1 spike protein; experiment: as above
[5] = biological target: SARS-CoV-2 Wuhan-Hu-1 spike receptor-binding domain; experiment: as above

B1: B1096 (protein)
chain 1: EVQLVESGGGLVQPGGSLRLSCAASGFTFYTYDMHWVRQTPGKGLEWVSGIGTAGDTYYSGSVKGRFTVSRVDAKNSLYLQMDSLRAGDTAVYYCARGLCDFWSDYVSCYFDYWGQGTLVTVSS
chain 2: QSVLTQPPSVSAAPGQKVTISCSGSSSNIGNNYVSWFQQLPGTAPKLLIYDNNKRPSGIPDRFSGSKSGTSATLGITGLQTGDEADYYCGTWDSSVNAGVVFGGGTKLTVL
pseudovirus neutralization IC50 [1]: 0.00454 mg/L | pseudovirus neutralization IC90 [2]: 0.062 mg/L | ELISA binding EC50 [3]: 0.00624 mg/L | ELISA binding EC50 [4]: > 1 mg/L | ELISA binding EC50 [5]: 0.00187 mg/L

B2: B1100 (protein)
chain 1: EVQLVESGGGLVQPGRSLRLSCAASGFTFDDYAMHWVRQAPGKALEWVSGITWNSGTIGYADSVKGRFTISRDNAKNSLYLQMIRLRPEDTALYYCAKDITYGDKHPENYGMDVWGQGTTVTVSS
chain 2: SYVLTQPPSVSVAPGQTARMTCGGNNIGSKSVHWYQQKPGQAPVLVVYDDSDRPSGIPERFSGSNSGNTATLTISRVEAGDEADYYCQVWDSSSDLNVFGSGTKVTVL
pseudovirus neutralization IC50 [1]: 0.00968 mg/L | pseudovirus neutralization IC90 [2]: 0.151 mg/L | ELISA binding EC50 [3]: 0.0144 mg/L | ELISA binding EC50 [4]: 0.00347 mg/L | ELISA binding EC50 [5]: 0.00192 mg/L

B3: B1092 (protein)
chain 1: EVQLVESGGGLVQPGRSLRLSCAASGFTFHDYAIHWVRQVPGKGLEWVSGISWNSDDLGYADSVRGRFTISRDNAKNSVYLQMNSLRAEDTAIYYCAKDHILGAGTGWEKRENNFDPWGQGTLVIVSS
chain 2: DIQMTQSPSSLSASVGDRVTITCRASQSIRNYLNWYQQKPGKAPKLLIYGASTLQSGVPARFSGSGSGTDFTLTISSLQPEDLATYYCQQTYEIPPWTFGQGTKVEIK
pseudovirus neutralization IC50 [1]: > 1 mg/L | pseudovirus neutralization IC90 [2]: > 1 mg/L | ELISA binding EC50 [3]: > 1 mg/L | ELISA binding EC50 [4]: > 1 mg/L | ELISA binding EC50 [5]: 0.654 mg/L

B4: B1093 (protein)
chain 1: EVQLVESGGGLVQPGRSLRLSCAASGFTFHDYAIHWVRQVPGKGLEWVSGISWNSDDLGYADSVRGRFTISRDNAKNSVYLQMNSLRAEDTAIYYCAKDHILGAGTGWEKRENNFDPWGQGTLVIVSS
chain 2: DIQMTQSPSTLSASVGDRVTITCRASQSVSSWLAWYQQKPGKAPKLLIYKASNLQSGVPSRFSGSGSGTEFTLTISSLQPDDFATYYCQQYNTYPWMFGQGTKVEIK
pseudovirus neutralization IC50 [1]: 0.00175 mg/L | pseudovirus neutralization IC90 [2]: 0.0111 mg/L | ELISA binding EC50 [3]: 0.018 mg/L | ELISA binding EC50 [4]: > 1 mg/L | ELISA binding EC50 [5]: 0.0022 mg/L

B5: B1097 (protein)
chain 1: QLQLQESGPGLVKPSETLSLSCTVSGVSISSRNFYWGWIRQPPGKGLEWIGSIYYSGSTFSNPSLKTRVTISVDTSKKQFSLKLSSVTAADTAVYYCARALRHFDWSRPNDYHDAFDIWGQGTMVTVSS
chain 2: EIVLTQSPATLSLSPGERATLSCRASQSVGNYLAWYQQKPGQTPRLLISDASDRATGIPARFSGSGSGTDFTLTISSLEPEDFAVYYCQQCSNWPLTFGGGTKVEIK
pseudovirus neutralization IC50 [1]: 0.0108 mg/L | pseudovirus neutralization IC90 [2]: 0.184 mg/L | ELISA binding EC50 [3]: 0.0145 mg/L | ELISA binding EC50 [4]: 0.0265 mg/L | ELISA binding EC50 [5]: 0.00281 mg/L

B6: B1098 (protein)
chain 1: QLQLQESGPGLVKPSETLSLSCTVSGVSISSRNFYWGWIRQPPGKGLEWIGSIYYSGSTFSNPSLKTRVTISVDTSKKQFSLKLSSVTAADTAVYYCARALRHFDWSRPNDYHDAFDIWGQGTMVTVSS
chain 2: QSVLTQPPSVSGAPGQRVTISCTGSSSNIGANYDVHWYQHLPGTAPKLLIYGNNNRPSGVPDRFSGSKSGTSASLAITGLRAEDEADYYCQSYDSSLSGIVFGSGTKVTVL
pseudovirus neutralization IC50 [1]: > 1 mg/L | pseudovirus neutralization IC90 [2]: > 1 mg/L | ELISA binding EC50 [3]: > 1 mg/L | ELISA binding EC50 [4]: > 1 mg/L | ELISA binding EC50 [5]: 0.00878 mg/L

B7: B1087 (protein)
chain 1: QVQLVESGGGVVQPGRSLRLSCAASGFTFSNHAMHWVRQAPGKGLEWVASITYDGSNKYYAGSVKGRFTIARDNSKNTLHLQMNSLRAEDTAVYYCARDGGSGYDYSFDGLDVWGQGTTVTVSS
chain 2: DIVMTQTPLSSPVTLGQPASISCRSSQSLVHRDGNTYLSWLQQRPGQPPRLLIYKISNRFSGVPDRFSGSGTATDFTLKISRVQAEDVGVYFCMQATHPGITFGQGTRLEIK
pseudovirus neutralization IC50 [1]: 0.0022 mg/L | pseudovirus neutralization IC90 [2]: 0.0128 mg/L | ELISA binding EC50 [3]: 0.00383 mg/L | ELISA binding EC50 [4]: > 1 mg/L | ELISA binding EC50 [5]: 0.00212 mg/L

B8: B1090 (protein)
chain 1: EVQLVESGGGLVQPGGSLRLSCAASGFTFSTYSMNWVRQAPGKGLEWLSYISSGSSTIKYADSVKGRLTISRDNAKNSLFLQMNSLRDEDTAVYYCARVQIRSGYYYYYGMDVWGQGTTVTVSS
chain 2: QSVLTQPRSVSGSPGQSVTISCTGTSSDIGSYDYVSWYQQHPGTAPKLMIYDVSKRPSGVPDRFSGSKSGNTASLTISGLQTEDESDYYCCSYAGIWLFGGGTKLTVL
pseudovirus neutralization IC50 [1]: > 1 mg/L | pseudovirus neutralization IC90 [2]: > 1 mg/L | ELISA binding EC50 [3]: 0.0538 mg/L | ELISA binding EC50 [4]: 0.0328 mg/L | ELISA binding EC50 [5]: 0.00028 mg/L

B9: B1088 (protein)
chain 1: EVQLVQSGAEVKKPGESLKISCKGSGYSFTNYWIAWVRQMPGKGLEWMGIIYPGDSDTRYSPSFQGQITFSADKSISTAYLQWSSLKASDTAMYYCARLYPQSYYYDSSGYYYFDYWGQGTLVTVSS
chain 2: SYVLTQPPSVSVSPGQTARITCSGDALPKPYAYWYQQKPGQAPVLVIYKDSERPSGIPERFSGSSSGTTVTLTISGVQAEDEADYYCQSADITGTYVVFGGGTKLTVL
pseudovirus neutralization IC50 [1]: 0.171 mg/L | pseudovirus neutralization IC90 [2]: > 1 mg/L | ELISA binding EC50 [3]: 0.149 mg/L | ELISA binding EC50 [4]: 0.101 mg/L | ELISA binding EC50 [5]: 0.00289 mg/L

B10: B1095 (protein)
chain 1: QVQLVQSGAEVRKPGSSVKVACKASGGNFNNSGISWVRQAPGQGLEWMGGIIPLFESEKYAQKFQGRVTITADESTSTAYMELSSLRSEDTAVYYCARGRVATRRTTVTTLFDDWGQGTLVTVSS
chain 2: DIVMTQSPDSLAVSLGERATINCKSSQSVLYSSNNKNYLAWYQQKPGQPPKLLFYWASTRESGVPDRFSGSGSGADFTLTISSLQAEDVAVYYCLQYYSSPYTFGQGTKLEIK
pseudovirus neutralization IC50 [1]: 0.00236 mg/L | pseudovirus neutralization IC90 [2]: 0.0232 mg/L | ELISA binding EC50 [3]: 0.0662 mg/L | ELISA binding EC50 [4]: > 1 mg/L | ELISA binding EC50 [5]: 0.00181 mg/L

B11: B1086 (protein)
chain 1: QVQLVQSGAEVKKPGASVKVSCKASGYTFTSNGISWVRQAPGQGLEWMGWISVYNGNTNYAQKLQGRLTMTTDTSTSTAYMELRSLRSDDTAVYYCARAVWSSGDYGGDLFDIWGQGTMITVSS
chain 2: DIQMTQSPSSLSASVGDRVTITCQASQDISNYLNWYQQKPGKAPKLLIYDASNLESGVSSRFSGSGSGTDFTFTISSLQPEDIATYYCQQYQNLPLTFGGGTKVEIK
pseudovirus neutralization IC50 [1]: 0.053 mg/L | pseudovirus neutralization IC90 [2]: > 1 mg/L | ELISA binding EC50 [3]: 0.00373 mg/L | ELISA binding EC50 [4]: 0.036 mg/L | ELISA binding EC50 [5]: 0.00219 mg/L

B12: B1101 (protein)
chain 1: QVQLVQSGAEMKKPGSSVKVSCKASGGTFSSYSISWVRQAPGQGLEWMGEIMPILGIPNYAQKFQGRVTLTADQSTSTAYMDLTSLRSEDTAVYYCARVRGYSSSSSSWYFDLWGRGTLVSVSA
chain 2: QSVLTQPPSVSGAPGQRVTISCTGSNSNIGAAYDVHWYQQLPGTAPKLLMYGNNNRPSGVPDRFSGSKSDTSASLAITGLQAEDEADYYCQSYDSSLSGSVFGGGTKLTVL
pseudovirus neutralization IC50 [1]: 0.0828 mg/L | pseudovirus neutralization IC90 [2]: 0.811 mg/L | ELISA binding EC50 [3]: 0.0223 mg/L | ELISA binding EC50 [4]: 0.00393 mg/L | ELISA binding EC50 [5]: 0.00273 mg/L

B13: B1094 (protein)
chain 1: EVQLVESGGGLIQPGGSLRLSCTPSGFTVSGIYWGWVRQAPGKGLEWVSVLYDGGAIYYADAVKGRFTISRDNSKNTVHLQMNSLRVEDTAVYYCARRSLYVGDFGDLLYPIIWGQGTTVTVSS
chain 2: DIVMTQSPLSLPVTPGEPASMSCRSSQSLLHGNGYNYLDWYLQKPGQSPQLLIYFGSYRASGVPDRFSGSGSGTDFTLKISRVEAEDVGVYFCMQALRTPFTFGPGTEVDIK
pseudovirus neutralization IC50 [1]: 0.00262 mg/L | pseudovirus neutralization IC90 [2]: 0.0161 mg/L | ELISA binding EC50 [3]: 0.0628 mg/L | ELISA binding EC50 [4]: 0.0549 mg/L | ELISA binding EC50 [5]: 0.00168 mg/L

B14: B1103 (protein)
chain 1: QVQLVQSGAEVKKPGASVKVSCKASGYTFISHYMHWVRQAPGQGLEWMGIINPDGGSTTYAQKFQGRVTMTGDSSTSTLYMELSSLRSEDTAVYYCARDGGFIPAAEVFDIWGQGTVVTVSS
chain 2: DIQMTQSPSSLSASVGDRVTITCRASQGISNYLAWYQQKPGKVPKLLIYAASTLQSGVPSRFSGSGSGTDFTLTISSLQPEDVATYYCQKYNSAPLTFGGGTKVEIK
pseudovirus neutralization IC50 [1]: > 1 mg/L | pseudovirus neutralization IC90 [2]: > 1 mg/L | ELISA binding EC50 [3]: 0.757 mg/L | ELISA binding EC50 [4]: 1.11 mg/L | ELISA binding EC50 [5]: 0.00617 mg/L

Recombinant human monoclonal antibodies (heavy:light variable regions). ELISA EC50 on the named antigen, from 10 µg/ml down; IC50 / IC90 against spike pseudovirus on 293T-ACE2 cells, 48 h; lower = stronger. Calls: IC50 above 1,000 ng/ml = non-neutralizing; EC50 above 1,000 ng/ml = non-binder. The source prints 1000 for neutralization that was not reached; it is given as >1000 ng/ml. Only binders of the Wuhan-Hu-1 domain have neutralization values.
